Data: the supplement of paper PMC3334620
The full ranking holds about 33,000 sequences; the median of “E-score (-0.5 to 0.5)” is about -0.017, and the highest 2% start at about 0.3. This is one part of the list.

What follows are sequences tested against T1, Sut1 (UniProt P53032) (assay: PBM E-score (8-mer binding enrichment) (E-score (-0.5 to 0.5)); higher = stronger / more preferred TF binding; most listed sequences are background and not binding sites). Conditions: protein concentration: 200 nM; construct: GST-full length.
T1 sequence: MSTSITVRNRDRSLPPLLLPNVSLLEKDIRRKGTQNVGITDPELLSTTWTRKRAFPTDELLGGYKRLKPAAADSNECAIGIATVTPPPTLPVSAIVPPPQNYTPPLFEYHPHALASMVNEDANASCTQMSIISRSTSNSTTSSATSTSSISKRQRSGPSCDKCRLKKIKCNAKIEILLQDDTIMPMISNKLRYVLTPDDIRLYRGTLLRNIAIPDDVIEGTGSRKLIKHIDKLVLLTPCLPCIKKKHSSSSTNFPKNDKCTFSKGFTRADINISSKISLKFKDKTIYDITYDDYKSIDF
How it was run: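 Full-length yeast transcription factors or their DNA-binding domains, GST-tagged and expressed with PURExpress, were applied at about 100-200 nM to universal all-10-mer Agilent arrays. These arrays had been made double-stranded by primer extension on fresh or once-stripped slides. Detection used fluorescent anti-GST, normalisation used masliner, and E-scores for ungapped eight-base words pooled with reverse complements came from the Universal PBM Analysis Suite.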
With TGAGAGCA the “PBM E-score” value was 0.0225.
In the case of ATCATTAA, the “PBM E-score” value is reported as 0.305.
AAGTGTTG was tested, and the “PBM E-score” value was 0.162.
With AACCAATA the “PBM E-score” value was 0.157.
With CCCCTCCG the “PBM E-score” value was -0.14.
In the case of TACAGTCA, the “PBM E-score” value is reported as 0.0623.
With AACGAACC the “PBM E-score” value was 0.12.
For CGCTCTGA, the “PBM E-score” value was -0.167.
ACGAAGAC was tested, and the “PBM E-score” value was -0.04.
In the case of CCCCGGTC, the “PBM E-score” value is reported as 0.0652.
For CGTGGCTA, the “PBM E-score” value was -0.0311.
For CATCAGCA, the “PBM E-score” value was -0.0871.
In the case of ACCGTTCG, the “PBM E-score” value is reported as -0.101.
In the case of CATTGGGA, the “PBM E-score” value is reported as -0.184.
With AATCAATA the “PBM E-score” value was 0.193.
For GATCCATC, the “PBM E-score” value was 0.113.
For CTTCGTCA, the “PBM E-score” value was 0.00553.
In the case of CGATACAC, the “PBM E-score” value is reported as 0.0385.
TACGCCAA was tested, and the “PBM E-score” value was -0.254.
For AAAGGGCG, the “PBM E-score” value was -0.1.
CCCGCCAC was tested, and the “PBM E-score” value was -0.00219.
With CGCCGAGA the “PBM E-score” value was 0.0729.
In the case of ATTTGAAC, the “PBM E-score” value is reported as 0.158.
With CCCGATTC the “PBM E-score” value was 0.0897.
In the case of AACAAAGT, the “PBM E-score” value is reported as 0.262.
With ATAAATCC the “PBM E-score” value was 0.217.
With ACACTGAC the “PBM E-score” value was -0.0801.
With ACACGGGC the “PBM E-score” value was -0.114.
CGTCAGCA was tested, and the “PBM E-score” value was -0.145.
For AGTACTCC, the “PBM E-score” value was 0.325.
For GATCTAAC, the “PBM E-score” value was 0.119.
AACAGTCT was tested, and the “PBM E-score” value was -0.204.
AATTTTCT was tested, and the “PBM E-score” value was 0.122.
AATATATG was tested, and the “PBM E-score” value was 0.242.
For ACGGGTGC, the “PBM E-score” value was -0.0663.
In the case of GCTGCCTA, the “PBM E-score” value is reported as -0.09.
With AAATCTAC the “PBM E-score” value was 0.24.
For CGCCTTTA, the “PBM E-score” value was 0.00935.
CAATTATA was tested, and the “PBM E-score” value was 0.164.
GCTTGTGA was tested, and the “PBM E-score” value was -0.189.
With CCAGTCTA the “PBM E-score” value was -0.171.
In the case of CGGTAGTA, the “PBM E-score” value is reported as 0.0454.
In the case of CGGCACGA, the “PBM E-score” value is reported as -0.0995.
In the case of ACACCTAG, the “PBM E-score” value is reported as -0.0572.
For ACCTGTCA, the “PBM E-score” value was 0.00542.
In the case of CACCTATG, the “PBM E-score” value is reported as -0.171.
CATGTTCC was tested, and the “PBM E-score” value was -0.0382.
With CTGCTCTA the “PBM E-score” value was -0.104.
For ATAGATGG, the “PBM E-score” value was -0.0418.
With GCGTGCTA the “PBM E-score” value was -0.251.
AAAGCGGT was tested, and the “PBM E-score” value was -0.0242.
In the case of ATGTTCGC, the “PBM E-score” value is reported as -0.0708.
With CAAGAGGC the “PBM E-score” value was -0.191.
With ACTTAACG the “PBM E-score” value was 0.0577.
For CACGCTGC, the “PBM E-score” value was -0.277.
CCTTCGAC was tested, and the “PBM E-score” value was -0.232.
With GATCTCTA the “PBM E-score” value was -0.094.
For AGGTCCAC, the “PBM E-score” value was -0.265.
In the case of ACAAGCGA, the “PBM E-score” value is reported as -0.00091.
GAGCGGCC was tested, and the “PBM E-score” value was -0.156.
In the case of CCTGATAC, the “PBM E-score” value is reported as 0.0669.
With AAATCTGT the “PBM E-score” value was 0.097.
CAGTGTTC was tested, and the “PBM E-score” value was 0.0572.
In the case of AGCCCAAG, the “PBM E-score” value is reported as -0.181.
In the case of CCACTGCG, the “PBM E-score” value is reported as -0.0681.
In the case of ATCTCGTC, the “PBM E-score” value is reported as -0.0264.
With AAAATAGT the “PBM E-score” value was 0.133.
